This is an account of results in the antibiotic and cytotoxicity screens of Wong et al. (2023).

The other results are listed elsewhere or left out.

The test system of this test is S. aureus RN4220. Put plainly: growth inhibition call (relative growth <= 0.2). To be noted: 50 µM.
Consider `CN(C)Cc1cn(CC[C@H]2CC[C@@H](NS(=O)(=O)c3ccccc3)[C@H](CO)O2)nn1`, for which the growth inhibition call is “inactive”. Take `Cc1ccc(S(=O)(=O)Nc2ccc3c(c2)C(=O)N([C@H](C)CO)C[C@H](C)[C@H](CN(C)C(=O)CCC(F)(F)F)OCCCC[C@H](C)O3)cc1`: the growth inhibition call was “inactive”. In the case of `C[C@H]1CN([C@@H](C)CO)C(=O)Cc2cc(NC(=O)Nc3ccc(F)cc3)ccc2O[C@H]1CN(C)C(=O)Nc1ccc(C(F)(F)F)cc1` it was “inactive”; in that of `C[C@H]1CN([C@@H](C)CO)C(=O)c2cc(NC(=O)CCCN(C)C)ccc2O[C@@H]1CN(C)C(=O)Nc1ccccc1`, “inactive”; in that of `C[C@H]1CN([C@@H](C)CO)C(=O)c2cccc(NC(=O)Nc3ccccc3)c2O[C@H]1CN(C)Cc1ccc(Oc2ccccc2)cc1`, “inactive”. For `C[C@@H]1CN([C@@H](C)CO)C(=O)Cc2cc(NS(=O)(=O)c3cccs3)ccc2O[C@H]1CN(C)S(=O)(=O)c1ccc(F)cc1`, the growth inhibition call is “inactive”.

Take `C[C@@H]1CN([C@@H](C)CO)S(=O)(=O)c2ccc(C3=CCCC3)cc2O[C@@H]1CN(C)C(=O)c1cnccn1`: the growth inhibition call was “inactive”. As to `C[C@H]1CN([C@@H](C)CO)S(=O)(=O)c2ccc(C3=CCCCC3)cc2O[C@@H]1CN(C)C(=O)C1CCOCC1`, the growth inhibition call was “inactive”.

Take `COc1ccc(S(=O)(=O)N(C)C[C@@H]2OCCCC[C@@H](C)Oc3ccc(NC(=O)Nc4ccc(C(F)(F)F)cc4)cc3C(=O)N([C@H](C)CO)C[C@H]2C)cc1`: the growth inhibition call was “inactive”. In the case of `c1ccc(Oc2ccncc2)cc1` it was “inactive”; in that of `C[C@@H]1CN([C@H](C)CO)C(=O)c2cc(NS(=O)(=O)c3cn(C)cn3)ccc2O[C@H]1CN(C)CC1CCCCC1`, “inactive”; in that of `C[C@@H]1CN([C@H](C)CO)C(=O)Cc2cc(NC(=O)NC3CCCCC3)ccc2O[C@@H]1CN(C)Cc1ccc(C(F)(F)F)cc1`, “inactive”. In the case of `O=C(NC(=O)N1CCOCC1)c1ccc(S(=O)(=O)N2CCOCC2)cc1` it was “inactive”; in that of `C[C@H]1CN([C@@H](C)CO)C(=O)c2cccc(NC(=O)Nc3ccccc3)c2O[C@H]1CN(C)Cc1ccc(-c2ccccc2)cc1`, “inactive”; in that of `C[C@H]1CN([C@@H](C)CO)C(=O)Cc2cc(NC(=O)Cc3ccccc3)ccc2O[C@@H]1CN(C)S(C)(=O)=O`, “inactive”. In the case of `O=C1N[C@@H]2[C@@H]1[C@H]1C=C[C@H]2C1`, the growth inhibition call is “inactive”. For `O=C(O)c1ccc(-c2ccccc2)cc1`, the growth inhibition call is “inactive”. Turning to `C[C@@H]1CN([C@@H](C)CO)C(=O)c2cc(NC(=O)NC3CCCCC3)ccc2O[C@@H](C)CCCCO[C@H]1CN(C)S(=O)(=O)c1cccs1`, the growth inhibition call was “inactive”. In the case of `O=C(C1CCC1)N1CCOCC1`, the growth inhibition call is “inactive”.

`Cc1ccccc1S(=O)(=O)N(C)C[C@@H]1Oc2ccc(NC(=O)Nc3cccc(C(F)(F)F)c3)cc2CC(=O)N([C@@H](C)CO)C[C@@H]1C`: the growth inhibition call is “inactive”.

Turning to `COc1ccc(NC(=O)Nc2ccc3c(c2)[C@H]2C[C@H](CC(=O)NCc4ccccn4)O[C@@H](CO)[C@H]2O3)cc1`, the growth inhibition call is “inactive”. As for `OC[C@H]1O[C@@H](O)[C@@H](O)[C@@H](O)[C@@H]1O`, the entry is “inactive”; as for `COc1ccc(S(=O)(=O)Nc2ccc3c(c2)C(=O)N([C@@H](C)CO)C[C@@H](C)[C@@H](CN(C)C(=O)Nc2cccc4ccccc24)OCCCC[C@H](C)O3)cc1`, “inactive”. In the case of `C[C@@H]1CCCCO[C@@H](CN(C)Cc2ccc(C(=O)O)cc2)[C@H](C)CN([C@H](C)CO)C(=O)c2cc(NS(=O)(=O)c3ccccc3)ccc2O1`, the growth inhibition call is “inactive”.

Consider `C[C@@H]1CN([C@@H](C)CO)C(=O)c2cc(NC(=O)Nc3ccc(C(F)(F)F)cc3)ccc2O[C@@H]1CN(C)S(C)(=O)=O`, for which the growth inhibition call was “inactive”.

As to `CC(C)[C@H]1CC[C@@H](C)C[C@@H]1NC(=O)c1cccc2ccccc12`, the growth inhibition call was “inactive”. In the case of `CN1CCN(C(=O)C[C@@H]2CC[C@H]3[C@H](COc4ccc(NC(=O)C5CCOCC5)cc4C(=O)N3C)O2)CC1` it was “inactive”; in that of `C[C@@H]1CN([C@@H](C)CO)C(=O)c2cccc(NC(=O)CCCCCC(=O)Nc3ccccc3N)c2O[C@H]1CN(C)Cc1ccc(-c2ccccc2)cc1`, “inactive”; in that of `CN1CCN(C(=O)C[C@H]2CC[C@@H]3[C@@H](COc4ccc(NC(=O)c5cccs5)cc4C(=O)N3C)O2)CC1`, “inactive”.
